# Measurements published in PubChem BioAssay AID463173 (ICCB-Longwood Screening Facility, Harvard Medical School, 2010).
# Among all 52,000 compounds or so, about 4,300 (8.3%) were called active. No stated cut-off is given here; in the data, active means survival mostly below about 52% (no sharp cut-off); inactive means mostly above about 56%. Some of the results follow.
# System: DeltatarO mutant
# Test: S. aureus survival, RN4220 and DeltatarO strains – OD600, teichoic acid synthesis inhibitors, primary screen (AID 463173)
# Details: S. aureus RN4220 wild type/DeltatarO growth, OD600, 18 h, stronger effect = lower value; concentration not given here unless noted
row,SMILES,survival
1,CCCc1nc2ccccc2c(=O)n1-c1ccccc1,inactive: 88%
2,O=C(Nc1ccon1)c1cccn(Cc2cccc(Cl)c2)c1=O,inactive: 93%
3,O=c1[nH]c2ccccc2c(=O)n1-c1ccc(Cl)c(Cl)c1,inactive: 80%
4,Cc1cccc(NC(=O)Cn2cc(C(=O)c3ccccc3)c3ccccc32)c1C,inactive: 61%
5,Cc1oc(-c2ccc(Cl)cc2)nc1CN1C(=O)CN=C(c2ccccc2)c2ccccc21,inactive: 49%
6,O=c1cccc2n1CC1CC2CN(c2nc(N3CCCCC3)nc(N3CCCCC3)n2)C1 (configuration not stated),inactive: 79%
7,Cc1ccc(NC(=O)N(Cc2ccc3c(c2)OCO3)C2CCN(Cc3ccccc3)CC2)cc1F,inactive: 87%
8,COC(=O)CC1=C(C(=O)OC)C2(C(=O)Nc3ccc(F)cc32)C(C#N)=C(N)O1 (configuration not stated),inactive: 65%
9,CN(C)C(=O)Oc1cccc2cccnc12,inactive: 76%
10,Cc1cc(C)cc(-n2c(/C=C/c3cccc(F)c3)nc3ccccc3c2=O)c1,inactive: 83%
11,COc1ccc(NC(=O)CN2C(=O)C(C)N=C(c3ccccc3F)c3cc(Cl)ccc32)c(OC)c1 (configuration not stated),inactive: 89%
12,Cc1nnc(NC(=O)c2cccn(Cc3ccc(Cl)cc3)c2=O)s1,inactive: 70%
13,O=S1(=O)CC2(N3CCOCC3)CCCCC21 (configuration not stated),inactive: 84%
14,CC(=O)N(C1=NCCCS1)c1ccccc1F,inactive: 104%
15,Cc1ccc(-n2c(/C=C/c3ccc(Br)s3)nc3ccccc3c2=O)cc1C,inactive: 90%
16,COc1ccc(OC)c(NC(=O)Cn2cc(C(=O)c3ccccc3F)c3ccccc32)c1,active: 70%
17,CC(c1ccccc1F)n1cc(C(=O)Nc2ccc3nc[nH]c3c2)nn1 (configuration not stated),inactive: 81%
18,COC(=O)Cn1cc(C=C2C(=O)N(C)C(=O)N(C)C2=O)c2ccccc21,inactive: 83%
19,O=c1c2ccccc2nc(/C=C/c2cccc3ccccc23)n1-c1ccccc1Cl,inactive: 101%
20,COc1ccc(Cl)cc1NC(=O)CN1C(=O)CN=C(c2ccccc2)c2cc(Cl)ccc21,inactive: 71%
21,O=C1CC(=O)N(C2CCCCC2)C(=O)N1,inactive: 77%
22,Cc1ccc(-n2c(/C=C/c3ccc(Br)s3)nc3ccccc3c2=O)cc1,inactive: 85%
23,O=C1NC(=O)N(Cc2ccco2)C(=O)/C1=C\c1ccco1,inactive: 98%
24,Cc1cccc(-n2c(/C=C/c3ccccc3O)nc3ccccc3c2=O)c1,active: 0%
25,CCc1ccc(NC(=O)c2cccn(Cc3cccc([N+](=O)[O-])c3)c2=O)cc1,inactive: 89%
26,CNC(=O)Oc1c(Cl)cc(Cl)cc1Cl,inactive: 96%
27,CCOc1ccc(N(C(C)=O)C2=NCCCS2)cc1,inactive: 101%
